Source: PubChem BioAssay
Inconclusive means that the source gave no clear call. Such entries were picked first, then a sample of the others. Where the call is inconclusive, the potency comes from a doubtful curve fit. Active and inactive are the calls of the source. Unless noted, no cut-off is given here; in the data, nearly all actives have IC50 up to about 30 µM.

Test: JHH-DIPG-1 glioma cell viability, MIPE5.0 library, CellTiter-Glo luminescence, qHTS (AID 1347067; cut-off not given, nearly all actives have AC50 up to about 26 µM;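 note: cells exposed to compound for 48 hours before readout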)
Conditions: JHH-DIPG-1 glioma viability, CellTiter-Glo ATP luminescence

Structure (SMILES) | AC50 | outcome
CO[C@@H]1C(N(C)C(=O)c2ccccc2)C[C@H]2O[C@]1(C)n1c3ccccc3c3c4c(c5c6ccccc6n2c5c31)C(=O)NC4=O (some centres undefined) | inconclusive: 0.661 µM [cytotoxic] | –
CN(C)c1ccc(-c2nc3ncc(Cl)c(N4CCN(CC(=O)Nc5nccs5)CC4)c3[nH]2)cc1 | active: 2.29 µM | –
CC(C)C[C@H](NC(=O)CNC(=O)c1cc(Cl)ccc1Cl)B1OC(=O)CC(CC(=O)O)(C(=O)O)O1 (some centres undefined) | active: 0.235 µM | –
CCNC(=O)Nc1ccc(-c2nc3c(c(N4CCOC[C@@H]4C)n2)CCN(C2COC2)C3)cc1 | inconclusive: 1.05 µM [cytotoxic] | –
CN(C)c1ccc(Nc2nc(N)n(C(=O)c3c(F)cccc3F)n2)cc1 | inconclusive: 26.3 µM [cytotoxic] | –
CCN(CCO)CCCOc1ccc2c(Nc3cc(CC(=O)Nc4cccc(F)c4)[nH]n3)ncnc2c1 | inconclusive: 0.295 µM [cytotoxic] | –
O=C(Nc1cccc(Cl)c1)Nc1ncc(CCNc2ncnc3ccsc23)s1 | active: 16.6 µM | –
CC[C@@]1(O)C[C@H](O[C@H]2C[C@H](N(C)C)[C@H](O[C@H]3C[C@H](O)[C@H](O[C@H]4CCC(=O)[C@H](C)O4)[C@H](C)O3)[C@H](C)O2)c2c(cc3c(c2O)C(=O)c2c(O)cccc2C3=O)[C@H]1C(=O)OC | active: 11.8 µM | –
CCOc1ccc(Nc2nc(-c3c(C)nc4ccccn34)cs2)cc1 | active: 0.0525 µM | –
COC(=O)Nc1nc2ccc(C(=O)c3ccccc3)cc2[nH]1 | active: 0.468 µM | –
O=c1[nH]nc(Sc2ncc([N+](=O)[O-])s2)n1-c1ccc2c(c1)OCCO2 | active: 2.95 µM | –
O=C(O)c1ccc2c(c1)nc(Nc1cccc(Cl)c1)c1ccncc12 | active: 2.95 µM | –
CS(=O)(=O)N1CCc2c(-c3cnc(N)nc3)nc(N3CCOCC3)nc21 | inconclusive: 0.742 µM [cytotoxic] | –
COc1cc2ncnc(Nc3cccc(Cl)c3)c2cc1OC | inconclusive: 5.9 µM [cytotoxic] | –
CN(C)c1nc(N(C)C)nc(N(C)C)n1 | – | inactive
O=C(NCCCNc1nc(Nc2cccc(NC(=O)N3CCCC3)c2)ncc1I)c1cccs1 | inconclusive: 16.6 µM [cytotoxic] | –
CCC(C)SSc1ncc[nH]1 (centres undefined) | inconclusive: 2.35 µM [cytotoxic] | –
O=C1[C@H](Cc2ccc(O)cc2)N2C(=O)CCN(C(=O)NCc3ccccc3)[C@H]2CN1Cc1cccc2ccccc12 | inconclusive: 5.9 µM [cytotoxic] | –
CC(C)C[C@@H](N)[C@H](O)C(=O)N[C@H](C(=O)N[C@H](C(=O)N[C@@H](CC(=O)O)C(=O)O)C(C)C)C(C)C | – | inactive
Clc1ccc(COC(Cn2ccnc2)c2ccc(Cl)cc2Cl)c(Cl)c1 (centres undefined) | active: 20.9 µM | –
CC1(C)O[C@@H]2C[C@H]3[C@@H]4CCC5=CC(=O)C=C[C@]5(C)[C@H]4[C@@H](O)C[C@]3(C)[C@]2(C(=O)CO)O1 | inconclusive: 37.2 µM | –
COc1ccc(-c2oc3c(CC=C(C)C)c(O)cc(O)c3c(=O)c2O)cc1 | inconclusive: 0.742 µM [cytotoxic] | –
COc1cc(F)c(F)c(Nc2ccc(I)cc2F)c1NS(=O)(=O)C1(C[C@H](O)CO)CC1 | active: 0.209 µM | –
OC(c1cc(C(F)(F)F)nc2c(C(F)(F)F)cccc12)C1CCCCN1 (centres undefined) | inconclusive: 37.2 µM [cytotoxic] | –

Test: SU-DIPG-XXV glioma cell viability, MIPE5.0 library, qHTS (AID 1347068);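 note: cells exposed to compound for 48 hours before viability readout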
Conditions: not given

Structure (SMILES) | IC50
CO[C@@H]1C(N(C)C(=O)c2ccccc2)C[C@H]2O[C@]1(C)n1c3ccccc3c3c4c(c5c6ccccc6n2c5c31)C(=O)NC4=O (some centres undefined) | inconclusive: 18.6 µM
CO[C@H]1C[C@@H]2CC[C@@H](C)[C@@](O)(O2)C(=O)C(=O)N2CCCC[C@H]2C(=O)O[C@H]([C@H](C)C[C@@H]2CC[C@@H](OC(=O)C(C)(CO)CO)[C@H](OC)C2)CC(=O)[C@H](C)/C=C(\C)[C@@H](O)[C@@H](OC)C(=O)[C@H](C)C[C@H](C)/C=C/C=C/C=C/1C | inconclusive: 8.11 µM [cytotoxic]
CC[C@H](CC#N)OC(=O)N[C@@H](C)c1cccc(NC(=O)Nc2ccc(-c3cnco3)c(OC)c2)c1 | active: 14.8 µM
CCNC(=O)Nc1ccc(-c2nc3c(c(N4CCOC[C@@H]4C)n2)CCN(C2COC2)C3)cc1 | inconclusive: 2.95 µM [cytotoxic]
CN(C)c1ccc(Nc2nc(N)n(C(=O)c3c(F)cccc3F)n2)cc1 | active: 14.8 µM
CCN(CCO)CCCOc1ccc2c(Nc3cc(CC(=O)Nc4cccc(F)c4)[nH]n3)ncnc2c1 | inconclusive: 2.35 µM [cytotoxic]
O=C(Nc1cccc(Cl)c1)Nc1ncc(CCNc2ncnc3ccsc23)s1 | active: 11.8 µM
Cc1cccc(-c2[nH]c(C(C)(C)C)nc2-c2ccc3c(c2)OCO3)n1 | active: 3.72 µM
CC[C@@]1(O)C[C@H](O[C@H]2C[C@H](N(C)C)[C@H](O[C@H]3C[C@H](O)[C@H](O[C@H]4CCC(=O)[C@H](C)O4)[C@H](C)O3)[C@H](C)O2)c2c(cc3c(c2O)C(=O)c2c(O)cccc2C3=O)[C@H]1C(=O)OC | inconclusive: 16.6 µM [cytotoxic]
COC(=O)Nc1nc2ccc(C(=O)c3ccccc3)cc2[nH]1 | inconclusive: 0.417 µM [cytotoxic]
C=C1C(=O)OC2/C=C(/C)CC/C=C(/C)CCC12 (centres undefined) | inconclusive: 29.5 µM [cytotoxic]
O=C(O)c1ccc2c(c1)nc(Nc1cccc(Cl)c1)c1ccncc12 | active: 7.42 µM
COc1cc2ncnc(Nc3cccc(Cl)c3)c2cc1OC | inconclusive: 23.5 µM [cytotoxic]
CC1(C)CCC2=C(O1)c1ccccc1C(=O)C2=O | active: 23.5 µM
CCCCc1ccc2nc(NC(=O)OC)[nH]c2c1 | inconclusive: 0.186 µM [cytotoxic]
CN1c2ccccc2C(=O)N2CCc3c([nH]c4ccccc34)C21 (centres undefined) | inconclusive: 2.63 µM [cytotoxic]
O=C(NCCCNc1nc(Nc2cccc(NC(=O)N3CCCC3)c2)ncc1I)c1cccs1 | inconclusive: 0.417 µM [cytotoxic]
CCC(C)SSc1ncc[nH]1 (centres undefined) | inconclusive: 29.5 µM [cytotoxic]
O=C1[C@H](Cc2ccc(O)cc2)N2C(=O)CCN(C(=O)NCc3ccccc3)[C@H]2CN1Cc1cccc2ccccc12 | inconclusive: 7.42 µM [cytotoxic]
Cc1c[nH]c(/C=C2\C(=O)Nc3ccccc32)c1CCC(=O)O | inconclusive: 11.8 µM [cytotoxic]
Clc1ccc(COC(Cn2ccnc2)c2ccc(Cl)cc2Cl)c(Cl)c1 (centres undefined) | inconclusive: 33.2 µM
CCCCc1nc2cc(/C=C/C(=O)NO)ccc2n1CCN(CC)CC | active: 13.2 µM
COc1cc(F)c(F)c(Nc2ccc(I)cc2F)c1NS(=O)(=O)C1(C[C@H](O)CO)CC1 | active: 2.63 µM
OC(c1cc(C(F)(F)F)nc2c(C(F)(F)F)cccc12)C1CCCCN1 (centres undefined) | inconclusive: 37.2 µM [cytotoxic]
Cc1cc(C(=O)NOCCO)c(Nc2ccc(I)cc2F)n(C)c1=O | inconclusive: 0.59 µM [cytotoxic]
